# Measured values from the supplement of paper PMC8728848.
# The other results are listed elsewhere or left out.
# What was measured:
# Test in all cases: glycan array binding signal (z-score within array); higher = stronger binding
# Conditions in all cases: glycan notation: IUPAC condensed, linker removed
# [1] = target: Man(a1-2)Man(a1-2)Man(a1-3)Man
# In short: (§1)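 The binding signal is a Z-score computed within each array and averaged over linkers. Arrays of the same protein sequence at different concentrations or buffers were also averaged together. Data originate from 3228 arrays in the Consortium for Functional Glycomics database, kept only where the protein sequence was available.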
# [2] = target: Man(a1-2)Man(a1-2)Man(a1-6)[Man(a1-3)]Man
# In short: as §1
# [3] = target: Man(a1-2)Man(a1-3)Man
# In short: as §1
# [4] = target: Man(a1-2)Man(a1-3)[Man(a1-2)Man(a1-6)]Man
# In short: as §1
# [5] = target: Man(a1-2)Man(a1-3)[Man(a1-2)Man(a1-6)]Man(a1-6)[Man(a1-2)Man(a1-2)Man(a1-3)]Man
# In short: as §1
# [6] = target: Man(a1-2)Man(a1-3)[Man(a1-2)Man(a1-6)]Man(a1-6)[Man(a1-2)Man(a1-2)Man(a1-3)]Man(b1-4)GlcNAc(b1-4)GlcNAc
# In short: as §1
# [7] = target: Man(a1-2)Man(a1-3)[Man(a1-2)Man(a1-6)]Man(a1-6)[Man(a1-3)[Man(a1-6)]Man(a1-6)]Man(b1-4)GlcNAc(b1-4)GlcNAc
# In short: as §1
# [8] = target: Man(a1-2)Man(a1-3)[Man(a1-6)]Man(a1-6)[Man(a1-2)Man(a1-3)]Man(b1-4)GlcNAc(b1-4)GlcNAc
# In short: as §1
# [9] = target: Man(a1-2)Man(a1-6)[Man(a1-3)]Man(a1-6)[Man(a1-2)Man(a1-2)Man(a1-3)]Man
# In short: as §1
# [10] = target: Man(a1-2)Man(a1-6)[Man(a1-3)]Man(a1-6)[Man(a1-2)Man(a1-2)Man(a1-3)]Man(b1-4)GlcNAc(b1-4)GlcNAc
# In short: as §1
# [11] = target: Man(a1-3)[Man(a1-6)]Man
# In short: as §1
# [12] = target: Man(a1-3)[Man(a1-6)]Man(a1-6)[Man(a1-2)Man(a1-3)]Man(b1-4)GlcNAc(b1-4)GlcNAc
# In short: as §1
# [13] = target: Man(a1-3)[Man(a1-6)]Man(a1-6)[Man(a1-3)]Man
# In short: as §1
# [14] = target: Man(a1-3)[Man(a1-6)]Man(a1-6)[Man(a1-3)]Man(b1-4)GlcNAc(b1-4)GlcNAc
# In short: as §1
# [15] = target: Man(a1-3)[Man(a1-6)]Man(b1-4)GlcNAc(b1-4)GlcNAc
# In short: as §1
# [16] = target: Man(a1-3)[Man(a1-6)]Man(b1-4)GlcNAc(b1-4)[Fuc(a1-6)]GlcNAc
# In short: as §1
# [17] = target: Man(a1-6)Man
# In short: as §1
# [18] = target: Man(b1-4)GlcNAc
# In short: as §1
# [19] = target: Neu5Ac(a2-3)Gal
# In short: as §1
# [20] = target: Neu5Ac(a2-3)Gal(b1-3)GalNAc
# In short: as §1
# [21] = target: Neu5Ac(a2-3)Gal(b1-3)GalNAc(b1-3)Gal(a1-4)Gal(b1-4)Glc
# In short: as §1
# [22] = target: Neu5Ac(a2-3)Gal(b1-3)GalNAc(b1-4)[Neu5Ac(a2-3)]Gal(b1-4)Glc
# In short: as §1
# [23] = target: Neu5Ac(a2-3)Gal(b1-3)GalNAc(b1-4)[Neu5Ac(a2-8)Neu5Ac(a2-3)]Gal(b1-4)Glc
# In short: as §1
# [24] = target: Neu5Ac(a2-3)Gal(b1-3)GalNAc6S
# In short: as §1
# [25] = target: Neu5Ac(a2-3)Gal(b1-3)GlcNAc
# In short: as §1
# [26] = target: Neu5Ac(a2-3)Gal(b1-3)GlcNAc(b1-2)Man(a1-3)[GlcNAc(b1-4)][Neu5Ac(a2-3)Gal(b1-3)GlcNAc(b1-2)Man(a1-6)]Man(b1-4)GlcNAc(b1-4)GlcNAc
# In short: as §1
# [27] = target: Neu5Ac(a2-3)Gal(b1-3)GlcNAc(b1-3)Gal(b1-3)GlcNAc
# In short: as §1
# [28] = target: Neu5Ac(a2-3)Gal(b1-3)GlcNAc(b1-3)Gal(b1-4)GlcNAc
# In short: as §1
# [29] = target: Neu5Ac(a2-3)Gal(b1-3)GlcNAc(b1-3)GalNAc
# In short: as §1
# [30] = target: Neu5Ac(a2-3)Gal(b1-3)GlcNAc(b1-6)GalNAc
# In short: as §1
binder,measurement,setting,value
"StcE (Escherichia coli), O82882.2 (protein) ADNNSAIYFNTSQPINDLQGSLAAEVKFAQSQILPAHPKEGDSQPHLTSLRKSLLLVRPVKADDKTPVQVEARDDNNKILGTLTLYPPSSLPDTIYHLDGVPEGGIDFTPHNGTKKIINTVAEVNKLSDASGSSIHSHLTNNALVEIHTANGRWVRDIYLPQGPDLEGKMVRFVSSAGYSSTVFYGDRKVTLSVGNTLLFKYVNGQWFRSGELENNRITYAQHIWSAELPAHWIVPGLNLVIKQGNLSGRLNDIKIGAPGELLLHTIDIGMLTTPRDRFDFAKDKEAHREYFQTIPVSRMIVNNYAPLHLKEVMLPTGELLTDMDPGNGGWHSGTMRQRIGKELVSHGIDNANYGLNSTAGLGENSHPYVVAQLAAHNSRGNYANGIQVHGGSGGGGIVTLDSTLGNEFSHEVGHNYGLGHYVDGFKGSVHRSAENNNSTWGWDGDKKRFIPNFYPSQTNEKSCLNNQCQEPFDGHKFGFDAMAGGSPFSAANRFTMYTPNSSAIIQRFFENKAVFDSRSSTGFSKWNADTQEMEPYEHTIDRAEQITASVNELSESKMAELMAEYAVVKVHMWNGNWTRNIYIPTASADNRGSILTINHEAGYNSYLFINGDEKVVSQGYKKSFVSDGQFWKERDVVDTREARKPEQFGVPVTTLVGYYDPEGTLSSYIYPAMYGAYGFTYSDDSQNLSDNDCQLQVDTKEGQLRFRLANHRANNTVMNKFHINVPTESQPTQATLVCNNKILDTKSLTPAPEGLTYTVNGQALPAKENEGCIVSVNSGKRYCLPVGQRSGYSLPDWIVGQEVYVDSGAKAKVLLSDWDNLSYNRIGEFVGNVNPADMKKVKAWNGQYLDFSKPRSMRVVYK",glycan array binding signal (z-score),[1],-0.442
same,glycan array binding signal (z-score),[2],0.186
same,glycan array binding signal (z-score),[3],-0.346
same,glycan array binding signal (z-score),[4],0.173
same,glycan array binding signal (z-score),[5],-0.151
same,glycan array binding signal (z-score),[6],-0.485
same,glycan array binding signal (z-score),[7],0.227
same,glycan array binding signal (z-score),[8],-0.065
same,glycan array binding signal (z-score),[9],-0.148
same,glycan array binding signal (z-score),[10],-0.091
same,glycan array binding signal (z-score),[11],-0.261
same,glycan array binding signal (z-score),[12],-0.153
same,glycan array binding signal (z-score),[13],-0.115
same,glycan array binding signal (z-score),[14],-0.198
same,glycan array binding signal (z-score),[15],-0.151
same,glycan array binding signal (z-score),[16],-0.049
same,glycan array binding signal (z-score),[17],-0.154
same,glycan array binding signal (z-score),[18],-0.124
same,glycan array binding signal (z-score),[19],-0.19
same,glycan array binding signal (z-score),[20],-0.161
same,glycan array binding signal (z-score),[21],-0.081
same,glycan array binding signal (z-score),[22],-0.173
same,glycan array binding signal (z-score),[23],-0.118
same,glycan array binding signal (z-score),[24],0.499
same,glycan array binding signal (z-score),[25],-0.187
same,glycan array binding signal (z-score),[26],-0.142
same,glycan array binding signal (z-score),[27],-0.157
same,glycan array binding signal (z-score),[28],-0.157
same,glycan array binding signal (z-score),[29],-0.155
same,glycan array binding signal (z-score),[30],-0.155
